Measurements reported in patent US20240018243A1 (NOVOMAB BIOPHARMACEUTICALS, published 2024).

T1: Human CTLA4-His recombinant protein (human, UniProt P16410 36-162)
T1 construct: also called CTLA4-HIS (Sino Biological); CTLA4 recombinant protein; not shown: His tag
T1 sequence (looked up): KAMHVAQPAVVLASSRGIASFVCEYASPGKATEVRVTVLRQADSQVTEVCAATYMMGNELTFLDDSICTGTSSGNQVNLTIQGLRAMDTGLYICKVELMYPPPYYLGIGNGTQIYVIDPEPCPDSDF

T2: human CTLA4 on transfected 293 cells (human, UniProt P16410 36-223)
T2 construct: whole, on cells; also called human CTLA4 expressing cells; CTLA4 overexpressing cells
T2 sequence (looked up): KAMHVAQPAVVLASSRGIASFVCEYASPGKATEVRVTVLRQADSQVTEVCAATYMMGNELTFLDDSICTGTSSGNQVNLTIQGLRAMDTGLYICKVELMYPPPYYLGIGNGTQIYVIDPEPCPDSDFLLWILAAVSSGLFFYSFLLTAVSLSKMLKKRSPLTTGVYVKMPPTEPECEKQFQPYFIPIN

B1: HCA13 (Fc fusion)
VHH-Fc (IgG4 S228P) fusion chain: EVQLLESGGGLVQPGGSLRLSCAASGSIFSINHMAWYRQAPGKGLELVAGVNSRGTTNYVDSVKGRFTISRDNSKNTLYLQMNSLRAEDTAVYYCRALGGAVAAWGQGTLVTVSSGGGGSGGGGSGGGGS[human IgG4 Fc with S228P (EU numbers) skipped]
notes: The sheet prints only 'HCA13'; also called HCA13-F4
B2: CA1-F4 (Fc fusion)
chain: QVQLQESGGGLVQAGGSLRLSCAASGSIFSINHMAWYRQAPGKQRELVAGVNSRGTTNYVDSVKGRFTISRDNAKNMVYLLMNSLKPEDTAVYYCRALGGAVAAWGQGTQVTVSSGGGGSGGGGSGGGGS[human IgG4 Fc with S228P (EU numbers) skipped]
notes: Alpaca VHH CA1 fused to human IgG4 Fc (S228P); Cloned with a signal peptide
B3: HCA11 (Fc fusion)
VHH-Fc (IgG4 S228P) fusion chain: EVQLLESGGGLVQPGGSLRLSCAASGFTFSINHMAWYRQAPGKGLELVAGVNSRGTTNYVDSVKGRFTISRDNSKNTLYLQMNSLRAEDTAVYYCAALGGAVAAWGQGTLVTVSSGGGGSGGGGSGGGGS[human IgG4 Fc with S228P (EU numbers) skipped]
notes: The sheet prints only 'HCA11'; also called HCA11-F4
B4: HCA12 (Fc fusion)
VHH-Fc (IgG4 S228P) fusion chain: EVQLLESGGGLVQPGGSLRLSCAASGSIFSINHMAWYRQAPGKGLELVAGVNSRGTTNYVDSVKGRFTISRDNSKNTLYLQMNSLRAEDTAVYYCAALGGAVAAWGQGTLVTVSSGGGGSGGGGSGGGGS[human IgG4 Fc with S228P (EU numbers) skipped]
notes: The sheet prints only 'HCA12'; also called HCA12-F4
B5: HCA14-F4 (Fc fusion)
chain: EVQLLESGGGLVQPGGSLRLSCAASGSIFSINHMAWYRQAPGKQRELVAGVNSRGTTNYVDSVKGRFTISRDNSKNTLYLQMNSLRAEDTAVYYCRALGGAVAAWGQGTLVTVSSGGGGSGGGGSGGGGS[human IgG4 Fc with S228P (EU numbers) skipped]
notes: also called bivalent antibody HCA14-F4
B6: HCA15 (Fc fusion)
VHH-Fc (IgG4 S228P) fusion chain: EVQLLESGGGLVQPGGSLRLSCAASGSIFSINHMAWYRQAPGKGLELVAGVNSRGTTNYVDSVKGRFTISRDNSKNMVYLQMNSLRAEDTAVYYCRALGGAVAAWGQGTLVTVSSGGGGSGGGGSGGGGS[human IgG4 Fc with S228P (EU numbers) skipped]
notes: The sheet prints only 'HCA15'; also called HCA15-F4
B7: HCA14-F1 (Fc fusion)
chain: EVQLLESGGGLVQPGGSLRLSCAASGSIFSINHMAWYRQAPGKQRELVAGVNSRGTTNYVDSVKGRFTISRDNSKNTLYLQMNSLRAEDTAVYYCRALGGAVAAWGQGTLVTVSSGGGGSGGGGSGGGGS[human IgG1 Fc skipped]
notes: HCA14 fused to human IgG1 Fc; also called HCA14-1

Assays:
[1] = target: T1, Human CTLA4-His recombinant protein; assay: ELISA, human CTLA4-His coated, goat anti-human IgG-HRP, OD450
[2] = target: T1, Human CTLA4-His recombinant protein; assay: as above; remark: listed apart in the source
[3] = target: T1, Human CTLA4-His recombinant protein; assay: ELISA, human CTLA4-His coated, anti-human IgG-HRP
[4] = target: T2, human CTLA4 on transfected 293 cells; assay: cell ELISA on 293 cells transfected with human CTLA4
[5] = target: T3, monkey CTLA4 on expressing cells (monkey); assay: cell ELISA on monkey CTLA4 expressing cells
T3 construct: whole, on cells; also called monkey CTLA4 expressing cells

[6] = target: T1, Human CTLA4-His recombinant protein; assay: OCTET (BLI), antibody on protein A biosensor, CTLA4-HIS in solution
Description: The affinity constant KD of the antibody to CTLA4 was determined using OCTET. Firstly, the protein A biosensor was used to immobilize the antibody to be detected, and the biosensors containing different antibodies were placed in the CTLA4-HIS diluent with the same concentration (Sino Biological) for binding for 4 min. The biosensor was then placed in the PBS for 400 s. The affinity constant KD of the antibody was analyzed by OCTET analysis software, KD is kd/ka.

Binder | EC50 [2] | EC50 [4] | further results
B1 | 0.0716 µg/mL |  | EC50 [1]: 0.0627 µg/mL
B2 | 0.00435 µg/mL | 0.0426 µg/mL | EC50 [3]: 0.00677 µg/mL
B3 | 0.657 µg/mL |  | 
B4 | 1.14 µg/mL |  | 
B5 |  | 0.0335 µg/mL | EC50 [5]: 0.00857 µg/mL; Kd [6]: < 1 pM; koff [6]: < 1e-07 s⁻¹; kon [6]: 37300 M⁻¹ s⁻¹
B6 |  |  | EC50 [1]: 0.165 µg/mL
B7 |  | 0.0367 µg/mL | 
